Where “and” joins values, the source holds several entries; their conditions need not be identical. Equal values may be shown once. The whole screen tested about 16,000 compounds, of which about 260 (1.6%) were called active. This list was built around the results that the source calls inconclusive (neither active nor inactive); the mix of calls is not that of the screen. Calls come from the whole dose curve; as a rule, active = well fitted inhibition curve with a large enough effect; inconclusive = small, poorly fitted or top-dose-only effect; inactive = no such curve, though single readings can be large or run the other way. Potencies beside an inconclusive call are fits to weak or partial responses and may not hold up. The source holds several records for some structures; these can differ, active in one and inactive in another.
Biological target: Rap guanine nucleotide exchange factor 4 (Homo sapiens) (UniProt Q8WZA2)
Experiment: Validation qHTS for antagonist of cAMP-regulated guanine nucleotide exchange factor 4 (EPAC2); note: nearly all actives have a fitted effect of over 40% in size
Settings: EPAC2 Rap1B BODIPY-GDP exchange, fluorescence; activity, negative = inhibition: at 112 µM (top of the series)
Text: Principle Investigator: Xiaodong Cheng Ph.D. The University of Texas Medical Branch, […], TX MLPCN Grant: NS066510 In multi-cellular eukaryotic organisms, the effects of cAMP are transduced by two ubiquitously-expressed intracellular cAMP receptors, the classic protein kinase A/cAMP-dependent protein kinase (PKA/cAPK) and the more recently discovered exchange protein directly activated by cAMP/cAMP-regulated guanine nucleotide exchange factor (EPAC/cAMP-GEF). Both PKA and EPAC are ubiquitously expressed in all tissues, and an increase in intracellular cAMP levels will lead to the activation of both PKA and EPAC. Therefore, careful dissections of the individual role and relative contribution of EPAC and PKA within the overall cAMP signaling in various model systems are critical for further elucidating the mechanism of cAMP signaling. To date no EPAC-specific antagonists and agonist, as well as isoform-specific agonists have been reported, and developing EPAC-specific pharmacological probes to determine the physiological functions that EPAC play in the overall cAMP-mediated signaling remains a major challenge within the research field. Furthermore, identified regulators of EPAC may lead to new mechanism-based therapeutic strategies specifically targeting the EPAC / cAMP-signaling components as EPAC has been implicated to play important roles in major human pathological conditions such as diabetes, heart disease, and cancer. This qHTS will be used to screen the Molecular Libraries Small Molecule Repository (MLSMR) as a concentration-titration series using the NCGC unique quantitative screening (qHTS) platform to find activators for EPAC1. In addition, this assay will also be used as a counterscreen for the EPAC2 qHTS. This fluorescent based assay is developed and validated for EPAC1 that measures exchange using EPAC effector Rap1 complex with BODIPY-GDP, a GDP analog with a tethered fluorophores. Activators are identified by monitoring the change in fluorescence signal as the exchanged free BODIPY-GDP has a reduced fluorescence compared to Rap1-bound BODIPY-GDP. Increase in signal (activation) is the desired outcome for the EPAC1 agonist while no activity in this assay is desired for the EPAC2 agonist counterscreen. Reference: [1] de Rooij, J., Zwartkruis, F. J., Verheijen, M. H., Cool, R. H., Nijman, S. M., Wittinghofer, A., and Bos, J.L. (1998) Nature 396, 474-477.
Briefly, three uL of reagents (100 nM EPAC2, 250 nM RAP1B-BODIPY-GDP, 50 uM GDP) were dispensed into a 1536-well Greiner black solid-bottom medium binding assay plate. Controls and test compounds (23 nL) were transferred to the plate via a Kalypsys pin tool equipped with a 1536-pin array. The plates were centrifuged at 1,000 rpm for 15 seconds followed by 5 minute incubation at room temperature. The assay plates were read at 5 minute intervals for 30 minutes in the ViewLux plate reader using 480nm excitation and 540nm emission filters. The results were normalized to the agonist positive control of 6.5 mM cAMP.
Potency is the fitted concentration of half-maximal effect; tags give direction and shape of the fitted curve.

Sequence of UniProt Q8WZA2 (Q8WZA2 whole entry, looked up): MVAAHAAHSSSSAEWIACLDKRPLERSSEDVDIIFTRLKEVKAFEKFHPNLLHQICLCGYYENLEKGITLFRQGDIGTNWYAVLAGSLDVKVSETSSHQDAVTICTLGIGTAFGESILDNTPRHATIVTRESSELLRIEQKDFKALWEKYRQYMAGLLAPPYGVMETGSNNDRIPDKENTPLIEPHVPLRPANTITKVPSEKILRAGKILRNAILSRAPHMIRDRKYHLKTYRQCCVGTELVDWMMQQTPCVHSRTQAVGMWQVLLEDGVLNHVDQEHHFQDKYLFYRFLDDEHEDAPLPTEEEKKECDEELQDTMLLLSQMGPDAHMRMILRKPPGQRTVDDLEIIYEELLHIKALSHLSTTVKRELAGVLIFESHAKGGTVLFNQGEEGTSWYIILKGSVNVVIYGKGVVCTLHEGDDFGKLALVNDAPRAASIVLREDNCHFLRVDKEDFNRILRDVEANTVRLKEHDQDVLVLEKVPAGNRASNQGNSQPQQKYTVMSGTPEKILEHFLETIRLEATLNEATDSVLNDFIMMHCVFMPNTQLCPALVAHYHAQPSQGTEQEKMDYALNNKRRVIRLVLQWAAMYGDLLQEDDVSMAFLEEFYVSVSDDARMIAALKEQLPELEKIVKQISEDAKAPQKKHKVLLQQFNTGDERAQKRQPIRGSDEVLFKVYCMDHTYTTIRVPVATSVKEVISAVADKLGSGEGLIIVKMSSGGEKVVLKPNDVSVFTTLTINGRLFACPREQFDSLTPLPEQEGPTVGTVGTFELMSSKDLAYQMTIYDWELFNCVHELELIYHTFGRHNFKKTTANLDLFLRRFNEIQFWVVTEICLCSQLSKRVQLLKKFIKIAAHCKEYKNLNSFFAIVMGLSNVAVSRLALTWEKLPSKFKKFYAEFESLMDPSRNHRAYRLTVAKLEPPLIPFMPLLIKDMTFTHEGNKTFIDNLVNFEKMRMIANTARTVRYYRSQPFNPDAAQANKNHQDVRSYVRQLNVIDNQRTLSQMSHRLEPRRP

| Compound | Potency | activity, negative = inhibition |
| --- | --- | --- |
| O=Cc1ccco1 | inactive |  |
| O=[N+]([O-])c1ccc(F)c([N+](=O)[O-])c1 | inactive |  |
| Cn1cc(C2=C(c3cn(C4CCN(Cc5ccccn5)CC4)c4ccccc34)C(=O)NC2=O)c2ccccc21 | inactive |  |
| c1ccc2sc(C3(NCC4CC4)CCCCC3)cc2c1 | inconclusive: 28.2 µM [inhibitor, full curve, poor fit] |  |
| C=CCC1=C(C)C(OC(=O)C2C(C=C(C)C)C2(C)C)CC1=O (stereo not drawn) | inactive |  |
| [Cl-].[Cl-].[Hg+2] | inconclusive: 17.8 µM [inhibitor, partial curve, poor fit] |  |
| CC(=O)c1c(O)c(C)c(O)c(Cc2c(O)c3c(c(C(=O)/C=C\c4ccccc4)c2O)OC(C)(C)C=C3)c1O | inconclusive: 63.1 µM [inhibitor, partial curve, poor fit] |  |
| O=C(Nc1ccccc1)N1CCCC2(CCN(C(=O)Oc3ccccc3)CC2)C1 | inconclusive: 31.6 µM [inhibitor, full curve, poor fit] |  |
| O=c1c2ccccc2[se]n1-c1ccccc1 | inconclusive: 141 µM [inhibitor, single point] |  |
| CC1CCC(C(C)C)C(OC(=O)c2ccccc2N)C1 (stereo not drawn) | inconclusive: 44.7 µM [inhibitor, partial curve, poor fit] |  |
| CC(C)NC(C)Cc1ccc(I)cc1 (stereo not drawn) | inconclusive: 89.1 µM [inhibitor, single point] |  |
| O=C(Oc1ccccc1)N1CCC2(CC1)CN(C(c1ccccc1)c1ccccc1)C2 |  | inconclusive: -31.4% [inhibitor] |
| CC1(C)[C@H](C=C(Cl)Cl)[C@H]1C(=O)OCc1c(F)c(F)cc(F)c1F | inactive |  |
| COc1ccc(OC)c(C[C@H](C)N)c1 | inactive |  |
| CN(C(=O)Cc1ccc(Cl)c(Cl)c1)C(CN1CCCC1)c1cccc(N=C=S)c1 (stereo not drawn) | inconclusive: 20 µM [inhibitor, partial curve, poor fit] |  |
| O=C1OC(c2ccc(O)c(S(=O)(=O)O)c2)(c2ccc(O)c(S(=O)(=O)O)c2)c2c(Br)c(Br)c(Br)c(Br)c21 | inconclusive: 10 µM [inhibitor, partial curve, poor fit] |  |
| CCCCC/C=C\C/C=C\CCCCCCCC(=O)NCCO | inconclusive: 0.708 µM [inhibitor, partial curve, poor fit] |  |
| O=C(O)C1=CCCN(CCOC(c2ccc(C(F)(F)F)cc2)c2ccc(C(F)(F)F)cc2)C1 | inconclusive: 44.7 µM [inhibitor, partial curve] |  |
| CCCCCCC(C)(C)c1ccc([C@@H]2C[C@H](O)CC[C@@H]2CCCO)c(O)c1 | active: 28.2 µM |  |
| C[C@]12CC[C@H]3[C@@H](CCC4=CC(=O)CC[C@@]43C)[C@@H]1CC[C@@H]2OC(=O)CCc1ccccc1 | inactive |  |
| NCC1(CC(=O)O)CCCCC1 | inconclusive: 89.1 µM [inhibitor, single point] |  |

| Compound | Potency | activity, negative = inhibition |
| --- | --- | --- |
| CCC(=O)C(CC(C)N(C)C)(c1ccccc1)c1ccccc1 (stereo not drawn) | inactive |  |
| CCOP(=O)(OCC)O/C(=C/Cl)c1ccc(Cl)cc1Cl | inconclusive: 17.8 µM [inhibitor, full curve] |  |
| Fc1ccc(C(OCCN2CCN(C/C=C/c3ccccc3)CC2)c2ccc(F)cc2)cc1 | inconclusive: 50.1 µM [inhibitor, partial curve] |  |
| Cc1ccc2c(c1)[C@]13CCCC[C@@H]1[C@H](C2)N(C)CC3 | inactive |  |
| CCCCCCC(C)(C)c1ccc([C@@H]2C[C@H](O)CC[C@H]2CCCO)c(O)c1 | inconclusive: 5.62 µM [inhibitor, full curve] |  |
| O.O.O.O=C([O-])C(O)C(O)C(=O)[O-].O=C([O-])C(O)C(O)C(=O)[O-].[K+].[K+].[Sb].[Sb] (stereo not drawn) | inactive |  |
| Cc1ncsc1CCCl | inconclusive: 39.8 µM [inhibitor, single point] |  |
| CCCCOC(=O)c1ccccc1C(=O)OCCCC | inconclusive: 44.7 µM [inhibitor, partial curve] |  |
| N#CC(C#N)=Cc1cc(O)c(O)c([N+](=O)[O-])c1 | inconclusive: 89.1 µM [inhibitor, single point] |  |
| CC(C)(C)c1cc(C=C(C#N)C#N)cc(C(C)(C)C)c1O | inconclusive: 100 µM [inhibitor, partial curve, poor fit] |  |
| O=C(O)[C@@H]1CSC(c2cccnc2)N1 (stereo partly drawn) | inactive |  |
| C=CCc1cc(OC)c2c(c1OC)OCO2 | inconclusive: 39.8 µM [inhibitor, partial curve] |  |
| COc1ccc2c(c1OC)CN1CCc3cc4c(cc3C1C2)OCO4 (stereo not drawn) | inconclusive: 28.2 µM [inhibitor, partial curve, poor fit] |  |
| CC[C@@H](CO)NC(=O)[C@@H]1C=C2c3cccc4c3c(cn4C)C[C@H]2N(C)C1 | inconclusive: 22.4 µM [inhibitor, single point] |  |
| CC(=O)N1CC[N+](C)(C)CC1 | inconclusive: 28.2 µM [inhibitor, single point] |  |
| CCCN(CCC)[C@H]1CCc2c(F)ccc(O)c2C1 | inconclusive: 25.1 µM [inhibitor, single point] |  |
| CCCCCC[C@H]1C(=O)O[C@H](C)[C@H](NC(=O)c2cccc(NC=O)c2O)C(=O)O[C@@H](C)[C@@H]1OC(=O)CC(C)C | active: 44.7 µM |  |
| Cc1o[nH]c(=O)c1C[C@H](N)C(=O)O | inconclusive: 89.1 µM [inhibitor, single point] |  |
| C/C=C(/C)C(=O)O[C@H]1C(C)=C2[C@H]([C@@H]1OC(=O)CCCCCCC)[C@@](C)(OC(C)=O)C[C@H](OC(=O)CCC)[C@@]1(O)[C@H]2OC(=O)[C@@]1(C)O | inconclusive: 56.2 µM [inhibitor, partial curve] |  |
| O=CC=O | inconclusive: 63.1 µM [inhibitor, partial curve, poor fit] |  |
| Cc1nc(-c2ccc(-c3ccc(C(=O)N4CCc5cc6c(cc54)C4(CCN(C)CC4)CO6)cc3)c(C)c2)no1 | inconclusive: 50.1 µM [inhibitor, partial curve] |  |

| Compound | Potency | activity, negative = inhibition |
| --- | --- | --- |
| CCC(C)C(=O)O[C@@H]1C[C@@]2(C)C(c3ccoc3)OC(=O)CC23OC2(C)O[C@@]14[C@@]1(C)C(CC(=O)OC)C5(C)CC1(O)C(O)(C5OC(=O)C1(C)OC1C)C(OC(C)=O)[C@@]34O2 (stereo partly drawn) | inconclusive: 63.1 µM [inhibitor, partial curve, poor fit] |  |
| Clc1ccc(COC(Cn2ccnc2)c2ccc(Cl)cc2Cl)cc1 (stereo not drawn) | inconclusive: 63.1 µM [inhibitor, partial curve, poor fit] and inconclusive: 39.8 µM [inhibitor, full curve, poor fit] |  |
| CC(=O)[C@H]1CCC2C3CC[C@H]4C[C@H](O)CC[C@]4(C)C3CC[C@@]21C (stereo partly drawn) | inconclusive: 70.8 µM [inhibitor, partial curve] |  |
| CCCCCCCCCOc1ccc2[nH]cc(CCN)c2c1 | inconclusive: 56.2 µM [inhibitor, partial curve, poor fit] |  |
| CCCCCCCCCCCCCCCC[N+](C)(C)C | inconclusive: 15.8 µM [inhibitor, partial curve] |  |
| CC(C)(O)C1O[C@H]2CC[C@@]3(C)[C@@](O)(CC[C@H]4Cc5c([nH]c6ccccc56)[C@@]43C)C2=CC1=O (stereo partly drawn) | inconclusive: 891 nM [inhibitor, full curve, poor fit] and inconclusive: 89.1 µM [inhibitor, partial curve] |  |
| O=C(Oc1ccccc1)N1CCC2(CC1)CN(Cc1ccncc1)C2 | inactive |  |
| CC(=O)O[C@H]1CC[C@@]2(C)C(=CC[C@@H]3[C@@H]2CC[C@]2(C)C(=O)CC[C@@H]32)C1 | inconclusive: 28.2 µM [inhibitor, partial curve] |  |
| CCCN(C/C=C\I)[C@@H]1CCc2ccc(O)cc2C1 | inconclusive: 44.7 µM [inhibitor, partial curve, poor fit] |  |
| C[C@@H](Cc1cccc(C(F)(F)F)c1)NCCCc1ccccc1 | inconclusive: 100 µM [inhibitor, partial curve, poor fit] |  |
| CCc1cc(OC)c(C[C@@H](C)N)cc1OC | inactive |  |
| CCOC(=O)[C@]12Cc3cc4c(cc3[C@H]1N(Cc1ccccc1)C(=O)c1ccccc12)OCO4 | inconclusive: 25.1 µM [inhibitor, full curve, poor fit] |  |
| CCC(=O)O[C@](Cc1ccccc1)(c1ccccc1)[C@H](C)CN(C)C | inactive |  |
| O=C(Oc1ccccc1)N1CCC2(CCCN(Cc3ccccc3)C2)CC1 | inconclusive: 100 µM [inhibitor, single point] |  |
| COc1ccc(C(c2ccc(OC)cc2)C(Cl)(Cl)Cl)cc1 | inconclusive: 100 µM [inhibitor, partial curve] and inconclusive: 39.8 µM [inhibitor, partial curve] |  |
| C=C1C[C@@H]2[C@H](CC[C@]3(C)C(=O)CC[C@@H]23)[C@@]2(C)C=CC(=O)C=C12 | inconclusive: 79.4 µM [inhibitor, single point] |  |
| CC1(C)S[C@H]2[C@@H](N)C(=O)N2[C@H]1C(=O)O | inactive |  |
| CC(=O)O.CC(=O)O.[Cd] | inactive |  |
| COc1cc(=O)n2c(c1C(=O)N(C)Cc1nonc1C)CCN(C(=O)C1C(C)(C)C1(C)C)CC2 | inconclusive: 89.1 µM [inhibitor, single point] |  |
| CC1=NN=C(c2ccc(N)cc2)c2cc3c(cc2C1)OCO3 | inconclusive: 100 µM [inhibitor, single point] |  |
| FC(F)(F)c1cccc(N2CCNCC2)c1 | inconclusive: 25.1 µM [inhibitor, partial curve, poor fit] |  |

Source: PubChem BioAssay AID1645886 (National Center for Advancing Translational Sciences (NCATS), 2021)
